The supplement of paper PMC4723716
± gives the uncertainty stated by the source. Over roughly 9,900 compounds, “viability index relative to DMSO control” has its median near 1; the lowest 2% begin near 0.85. Some of the results follow.

Tested on: Plasmodium falciparum NF54 stage V gametocytes
Assay: viability index relative to DMSO control (fraction); higher = less gametocyte killing
Conditions: 2.5 µM, incubation time: 72 h
How it was run: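 Gametocytes (P. falciparum NF54, stage V) were treated with compound at 2.5 µM for 72 hr at 37°C in low oxygen, in serum-free medium at 0.75% gametocytemia and 1.25% hematocrit. Counts of 20–70 µm2 red particles, taken from one field per well after MitoTracker Red CMXRos with saponin, were divided by the plate mean of solvent-only wells. This ratio is the viability index.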

[1] = library set: Broad Institute DOS
[2] = library set: Broad Institute Blood Stage

Row | Compound | viability index [1] | viability index [2]
1 | CN1C(=O)c2cc(NC(=O)Cc3cccs3)ccc2OC[C@H]2O[C@H](CC(=O)NCC3CCCCC3)CC[C@@H]21 | 1.16 ± 0.12 | 
2 | Cc1cccc(-c2ccc([C@@H]3[C@@H]4CNC[C@H]3N4)cc2)c1 | 1.01 ± 0.069 | 
3 | CO[C@@H]1CC[C@@H]2CCN(C)C(=O)[C@H](C)N(C)C(=O)c3cccc(C#N)c3OC[C@H]1O2 | 1.02 ± 0.014 | 
4 | O=C(c1cnccn1)N1CC(=O)N2[C@H](CO)[C@H](c3ccc(C#CC4CC4)cc3)[C@@H]2C1 | 1.118 ± 0.01 | 
5 | CCS(=O)(=O)Nc1ccc2c(c1)C(=O)N(C)[C@@H]1CC[C@H](CC(=O)NCc3ccc(OC)cc3)O[C@@H]1CO2 | 1.02 ± 0.067 | 
6 | COc1ccc(C#Cc2ccc3c(c2)[C@H]2[C@H](CCN2S(=O)(=O)c2ccccc2C)[C@H](CO)N3C)cc1 | 1.04 ± 0.042 | 
7 | COc1ccc(CN(C)C[C@H]2Oc3ccc(NC(=O)Nc4ccc5c(c4)OCO5)cc3CC(=O)N([C@@H](C)CO)C[C@H]2C)cc1 | 0.94 ± 0.052 | 
8 | C[C@@H]1CN([C@@H](C)CO)C(=O)c2c(c3ccccc3n2C)-c2ccccc2CO[C@H]1CN(C)Cc1cccc(C(F)(F)F)c1 | 0.932 ± 0.15 | 
9 | O=C(C[C@H]1C[C@H]2c3cc(NC(=O)Nc4ccccc4)ccc3O[C@H]2[C@@H](CO)O1)NCc1ccccc1 | 1.1 ± 0.059 | 
10 | O=C1CNC[C@H]2[C@@H](c3ccc(C#CC4CCCCC4)cc3)[C@@H](CO)N12 | 1.14 ± 0.039 | 
11 | CCC(=O)Nc1ccc2c(c1)OC[C@H](C)N(Cc1ccccc1)C[C@@H](C)[C@@H](OC)CN(C)C2=O | 1.02 ± 0.029 | 
12 | CNC(=O)C[C@@H]1CC[C@H]2[C@H](COc3ccc(NS(=O)(=O)c4ccc(F)cc4)cc3C(=O)N2C)O1 | 1.02 ± 0.1 | 
13 | COc1ccc2c3c([C@@H](CO)N(Cc4cc(F)ccc4F)C[C@]33CN(C3)C(=O)C3CC3)n(C)c2c1 | 0.941 ± 0.05 | 
14 | CC(C)COC(=O)N(C)C[C@@H]1OCc2ccccc2-c2ccccc2C(=O)N([C@H](C)CO)C[C@H]1C | 1.032 ± 0.0056 | 
15 | CN(C)C(=O)[C@H]1[C@H](CO)[C@H]2Cn3c(cccc3=O)[C@@H]1N2CC1CCOCC1 | 1.01 ± 0.058 | 
16 | COc1ccc2c3c([nH]c2c1)[C@H](CO)N(C[C@]31CN(Cc2ccccc2Cl)C1)C(C)=O | 0.979 ± 0.083 | 
17 | CN(C)Cc1cn(CC[C@@H]2CC[C@@H](NC(=O)Cc3cccnc3)[C@H](CO)O2)nn1 | 0.937 ± 0.048 | 
18 | O=C(C[C@@H]1C=C[C@@H](NC(=O)Nc2ccc3c(c2)OCO3)[C@H](CO)O1)NCCCN1CCOCC1 | 0.915 ± 0.059 | 
19 | C[C@@H]1CCCCO[C@H](CN(C)S(=O)(=O)c2ccc(Cl)cc2)[C@@H](C)CN([C@H](C)CO)C(=O)c2cc(NC(=O)Nc3ccc(C(F)(F)F)cc3)ccc2O1 | 1.08 ± 0.17 | 
20 | CO[C@@H]1CN(C)C(=O)c2ccc(NC(=O)c3ccccc3F)cc2OC[C@H](C)N(C)C[C@@H]1C | 1.11 ± 0.022 | 
21 | CO[C@H]1CN(C)C(=O)c2cc(NS(C)(=O)=O)ccc2OC[C@H](C)N(Cc2cncnc2)C[C@H]1C | 1.08 ± 0.019 | 
22 | Cc1noc(C)c1S(=O)(=O)N(C)C[C@@H]1OCc2ccccc2-c2c(n(C)c3ccccc23)C(=O)N([C@@H](C)CO)C[C@H]1C | 0.916 ± 0.084 | 
23 | O=S(=O)(NC[C@H]1[C@@H](c2ccccc2)[C@H](CO)N1CC1CC1)c1ccccc1 | 1.02 ± 0.019 | 
24 | COc1ccccc1-c1cn(CC[C@@H]2CC[C@@H](NC(=O)C3CCCCC3)[C@H](CO)O2)nn1 | 0.9323 ± 0.0013 | 

Row | Compound | viability index [1] | viability index [2]
25 | CCc1cnc(N2[C@H](C#N)[C@H](c3ccc(C#Cc4ccccc4F)cc3)[C@@H]2CO)s1 | 1.034 ± 0.0053 | 
26 | C[C@@H]1CN([C@@H](C)CO)C(=O)CCCn2nncc2CO[C@@H]1CN(C)S(=O)(=O)c1ccc2c(c1)OCCCO2 | 1.0105 ± 7.9e-05 | 
27 | COc1ccccc1-c1cnc2c(c1)C(=O)N([C@@H](C)CO)C[C@H](C)[C@H](CN(C)C(=O)CC1CC1)O2 | 1.05 ± 0.028 | 
28 | O=C(C[C@@H]1CC[C@H]2[C@@H](COC[C@H](O)CN2Cc2ccc(F)cc2)O1)NCCc1ccccc1 | 1.03 ± 0.033 | 
29 | CN(C)CC(=O)N1[C@H](C#N)[C@@H](c2ccc(C#CC3CCCCC3)cc2)[C@H]1CO | 1.05 ± 0.039 | 
30 | O=C(C1CCCCC1)N1[C@H](CO)[C@@H](c2ccccc2)C12CN(Cc1cccc(Cl)c1)C2 |  | 0.748 ± 0.048
31 | COc1ccc(-c2ccc([C@@H]3[C@@H](CO)N4C(=O)CN(Cc5ccccc5)C[C@@H]34)cc2)cc1 | 1.02 ± 0.056 | 
32 | O=C(c1ccccc1F)N1CC(=O)N2[C@H](CO)[C@H](c3ccc(C#Cc4ccccc4)cc3)[C@@H]2C1 | 1.07 ± 0.011 | 
33 | COCC(=O)Nc1ccc2c(c1)C(=O)N(C)C[C@@H](OC)[C@@H](C)CN(C(=O)c1ccncc1)[C@@H](C)CO2 | 1.14 ± 0.062 | 
34 | OC[C@@H]1[C@@H](c2ccc(C#Cc3ccccc3F)cc2)[C@H]2CN(CC3CCOCC3)CCCCN12 | 0.852 ± 0.021 | 
35 | COc1ccc2c3c([nH]c2c1)[C@@H](CO)N(C[C@]31CCN(CC2CCCC2)CC1)S(C)(=O)=O | 1.1 ± 0.015 | 
36 | C[C@@H]1CN([C@@H](C)CO)C(=O)c2cc(NC(=O)Nc3ccc(C(F)(F)F)cc3)ccc2O[C@@H](C)CCCCO[C@@H]1CN(C)CC1CCCCC1 | 1.07 ± 0.11 | 
37 | CCS(=O)(=O)N1CC(=O)N2[C@H](CO)[C@@H](c3ccc(C#CC4CCCCC4)cc3)[C@H]2C1 | 0.962 ± 0.014 | 
38 | CNC(=O)C[C@@H]1CC[C@@H]2[C@H](COc3ccc(NC(=O)c4ccccc4F)cc3C(=O)N2C)O1 | 1.13 ± 0.045 | 
39 | CCC(=O)N1CC(=O)N2[C@H](C1)[C@H](c1ccc(C#CCC(C)C)cc1)[C@@H]2CO | 1.02 ± 0.036 | 
40 | Cc1nn(C)cc1NC(=O)C[C@@H]1CC[C@@H]2[C@H](COc3ccc(NC(=O)C4CCOCC4)cc3C(=O)N2C)O1 | 1.05 ± 0.026 | 
41 | Cc1noc(C)c1S(=O)(=O)N(C)C[C@H]1OCc2cnnn2CCCC(=O)N([C@H](C)CO)C[C@H]1C | 1.08 ± 0.013 | 
42 | C[C@@H]1CN([C@@H](C)CO)C(=O)Cc2cc(NS(=O)(=O)c3ccc(F)cc3)ccc2O[C@H]1CN(C)Cc1ccncc1 | 0.956 ± 0.014 | 
43 | C[C@@H]1CCCCO[C@@H](CN(C)S(=O)(=O)c2ccc(F)cc2)[C@@H](C)CN([C@H](C)CO)C(=O)c2cc(N(C)C)ccc2O1 | 1.042 ± 0.0022 | 
44 | CCc1nc(N2[C@@H](C#N)[C@H](c3ccccc3-c3ccc(F)cc3)[C@@H]2CO)sc1C | 0.924 ± 0.07 | 
45 | C[C@@H](NC(=O)[C@@H]1[C@@H](CO)[C@@H]2Cn3c(ccc(-c4ccccc4)c3=O)[C@@H]2N1C)c1ccccc1 | 1.05 ± 0.015 | 
46 | CO[C@H]1CN(C)C(=O)c2ccc(NC(=O)C3CCC3)cc2OC[C@@H](C)N(Cc2ccccn2)C[C@H]1C | 1.05 ± 0.061 | 
47 | O=C(C[C@@H]1CC[C@@H](NC(=O)Nc2ccc(C(F)(F)F)cc2)[C@H](CO)O1)NCc1cccc(F)c1 | 0.962 ± 0.034 | 
48 | COc1ccc(S(=O)(=O)Nc2ccc3c(c2)[C@H]2C[C@H](CC(=O)N(C)C)O[C@H](CO)[C@H]2O3)cc1 | 1.09 ± 0.048 | 

Row | Compound | viability index [1] | viability index [2]
49 | COc1ccccc1NC(=O)N1CC(=O)N2[C@H](CO)[C@@H](c3ccc(-c4cccc(C)c4)cc3)[C@H]2C1 | 1 ± 0.12 | 
50 | CCCN1C[C@H](C)[C@H](OC)CN(C)C(=O)c2cc(NC(=O)C3CCC3)ccc2OC[C@H]1C | 0.958 ± 0.043 | 
51 | CCCN1C[C@@H](C)[C@@H](OC)CN(C)C(=O)c2cc(NS(=O)(=O)c3ccccc3)ccc2OC[C@@H]1C | 1.07 ± 0.02 | 
52 | CS(=O)(=O)N1[C@@H](C#N)[C@H](c2ccc(C#Cc3cccc(F)c3)cc2)[C@@H]1CO | 1.11 ± 0.073 | 
53 | CC(C)C#Cc1ccc([C@@H]2[C@@H](CO)N3C(=O)CN(C(=O)c4ccc5c(c4)OCO5)C[C@H]23)cc1 | 1.01 ± 0.048 | 
54 | N#C[C@H]1[C@H](c2ccccc2-c2cccc(F)c2)[C@@H](CO)N1C(=O)CN1CCOCC1 | 1.1 ± 0.098 | 
55 | COc1ccc(S(=O)(=O)N(C)C[C@@H]2Oc3c(NC(=O)c4nc5ccccc5s4)cccc3C(=O)N([C@@H](C)CO)C[C@H]2C)cc1 | 0.979 ± 0.043 | 
56 | COc1cccc(C#Cc2ccc([C@H]3[C@@H](CO)N(C(=O)C4CCCC4)[C@H]3C#N)cc2)c1 |  | 0.882 ± 0.054
57 | CO[C@H]1CN(C)C(=O)c2cc(NC(=O)Nc3cccc(Cl)c3)ccc2OC[C@H](C)N(C(=O)Nc2c(C)noc2C)C[C@H]1C | 0.7814 ± 0.0047 | 
58 | O=C(NC1CCCC1)N[C@H]1C=C[C@H](CC(=O)N2CCOCC2)O[C@H]1CO | 1.08 ± 0.023 | 
59 | C[C@@H]1CN([C@@H](C)CO)C(=O)CCCn2nncc2CO[C@@H]1CN(C)Cc1ccc2c(c1)OCCN2C | 1.04 ± 0.032 | 
60 | Cc1noc(C)c1NC(=O)Nc1ccc2c(c1)C(=O)N([C@H](C)CO)C[C@@H](C)[C@H](CN(C)Cc1ccc3c(c1)OCO3)OCCCC[C@@H](C)O2 | 1.1 ± 0.11 | 
61 | COc1ccc(CN(C)C[C@@H]2OCc3cnnn3CCCC(=O)N([C@H](C)CO)C[C@H]2C)cc1 | 1 ± 0.052 | 
62 | C[C@@H]1CN([C@@H](C)CO)C(=O)CCCn2nncc2CO[C@H]1CN(C)C(=O)c1ccc2ccn(C)c2c1 | 1.08 ± 0.017 | 
63 | COc1ccc([C@H]2C/C=C\C[C@@H](c3ccc4c(c3)OCO4)NC(=O)[C@@H](c3ccccc3)CC(=O)N2)c(OC)c1 | 0.987 ± 0.082 | 
64 | COc1ccc(NC(=O)N2CC[C@@]3(CC2)CN([C@@H](CO)c2[nH]c4cc(OC)ccc4c32)C(=O)c2cccnc2)cc1 | 1.003 ± 0.0024 | 
65 | CN(C)CC(=O)N[C@@H]1C=C[C@H](CC(=O)NCc2ccc(Cl)cc2)O[C@@H]1CO | 1.17 ± 0.1 | 
66 | CC(C)c1cn(CC[C@@H]2CC[C@H](NS(=O)(=O)c3ccc(F)cc3)[C@@H](CO)O2)nn1 | 1.16 ± 0.045 | 
67 | Cc1ccccc1S(=O)(=O)N1CCCCN2[C@H](CO)[C@@H](c3ccc(C#CCN(C)C)cc3)[C@H]2C1 | 0.982 ± 0.04 | 
68 | C/C=C/c1cnc2c(c1)C(=O)N([C@@H](C)CO)C[C@H](C)[C@H](CN(C)C(=O)Nc1cccc(OC)c1)O2 | 1.009 ± 0.0023 | 
69 | C[C@H](CO)N1C[C@H](C)[C@@H](CN(C)Cc2ccc3c(c2)OCCN3C)OCc2cnnn2CCCC1=O | 1.04 ± 0.025 | 
70 | COCC(=O)N1[C@H](C#N)[C@H](c2ccc(C#Cc3ccccc3F)cc2)[C@@H]1CO | 1 ± 0.012 | 
